From paper PMC4751553
These are yes or no findings as the source states them, for the method shown. Binding seen in cells or lysates may run through a third protein. Some binding calls cover weakened binding; strength is not graded here. Sequences can lack the tags named with a protein.

T1: Rvs161p tagged with an internal FLAG tag inserted after amino acid 85 (wild type) (S. cerevisiae) (UniProt P25343)
T1 sequence: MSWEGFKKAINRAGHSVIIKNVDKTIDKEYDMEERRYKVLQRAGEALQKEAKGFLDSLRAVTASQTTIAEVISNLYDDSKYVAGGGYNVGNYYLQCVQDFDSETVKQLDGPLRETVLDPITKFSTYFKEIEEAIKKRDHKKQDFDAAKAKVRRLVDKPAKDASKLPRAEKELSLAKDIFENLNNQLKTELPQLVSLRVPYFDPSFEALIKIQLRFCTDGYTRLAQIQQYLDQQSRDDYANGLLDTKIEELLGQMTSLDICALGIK


Target: T1, Rvs161p tagged with an internal FLAG tag inserted after amino acid 85 (wild type) (S. cerevisiae)
Test: co-IP; lysates of pheromone-induced S. cerevisiae (galactose medium, 10 μg/ml pheromone, 2 hr); Rvs161p-FLAG held on anti-FLAG M2 affinity gel, 1 hr at 4°, 50 mM Tris pH 7.4, 150 mM NaCl, 0.5% Triton X-100; bound Fus2p-GFP detected by western blot with anti-GFP

| Binder | binding |
| --- | --- |
| Fus2p^1–660 (GFP-tagged C-terminal truncation) (domain or fragment, UniProt Q05670 1-660) MFKTSYNLYDLNYPKNDSLTPIRDYKNDYFHKNDDKLPEIVRKPTRKLSKHENKLNDKKFTNKRPASLDLHSIVESLSNKKIYSPINTEIFQNVVRLNLSPQIPNSPHEGCKFYKIVQEFYLSEVEYYNNLLTANNVYRKALNSDPRFKNKLVKLDSSDELLLFGNIDTIASISKILVTAIKDLLLAKQRGKMLDANEWQKIFTKNEVQQQLYSTFDISEAFEQHLLRIKSTYTSYFVSHQKQMELFTTLRMNKNHFFNKWYEYCLKESGCIKLEDILKSPMKRLTQWIDTLETLESCYEDILSPELGLKLSPTRRKYSLFSNKLETEVSEYKSNSMYNFSLTPSEIIQSYDEDQFTHLLKPPDKQNKNICNASRQESNLDNSRVPSLLSGSSSYYSDVSGLEIVTNTSTASAEMINLKMDEETEFFTLADHISKFKKVMKGLLELKKNLLKNDLSGIIDISLRRINAWKKVIECERPSGAFFAHDNLISTMCSSYIDKLHEQKNQVTILKLTELETDVMNPLERIIAHCTTVKSKLKDLQALKKDYMLFLQEKKANVRDIKRDLLGMHFQNLQNQMKRELPVFITLIHDTIECILLNYIKVFLKYLEIIAGGKKYLQKDLENMSLNDSIATGQIKNLDILQCYSKSRYMTKRMVRKDWP | binds |
| Fus2p-GFP with E580 mutated to alanine (protein, UniProt Q05670 1-677) MFKTSYNLYDLNYPKNDSLTPIRDYKNDYFHKNDDKLPEIVRKPTRKLSKHENKLNDKKFTNKRPASLDLHSIVESLSNKKIYSPINTEIFQNVVRLNLSPQIPNSPHEGCKFYKIVQEFYLSEVEYYNNLLTANNVYRKALNSDPRFKNKLVKLDSSDELLLFGNIDTIASISKILVTAIKDLLLAKQRGKMLDANEWQKIFTKNEVQQQLYSTFDISEAFEQHLLRIKSTYTSYFVSHQKQMELFTTLRMNKNHFFNKWYEYCLKESGCIKLEDILKSPMKRLTQWIDTLETLESCYEDILSPELGLKLSPTRRKYSLFSNKLETEVSEYKSNSMYNFSLTPSEIIQSYDEDQFTHLLKPPDKQNKNICNASRQESNLDNSRVPSLLSGSSSYYSDVSGLEIVTNTSTASAEMINLKMDEETEFFTLADHISKFKKVMKGLLELKKNLLKNDLSGIIDISLRRINAWKKVIECERPSGAFFAHDNLISTMCSSYIDKLHEQKNQVTILKLTELETDVMNPLERIIAHCTTVKSKLKDLQALKKDYMLFLQEKKANVRDIKRDLLGMHFQNLQNQMKRALPVFITLIHDTIECILLNYIKVFLKYLEIIAGGKKYLQKDLENMSLNDSIATGQIKNLDILQCYSKSRYMTKRMVRKDWPFPGDPSGSRVVRKLFEL | binds |
| Fus2p-GFP with L581 mutated to alanine (protein, UniProt Q05670 1-677) MFKTSYNLYDLNYPKNDSLTPIRDYKNDYFHKNDDKLPEIVRKPTRKLSKHENKLNDKKFTNKRPASLDLHSIVESLSNKKIYSPINTEIFQNVVRLNLSPQIPNSPHEGCKFYKIVQEFYLSEVEYYNNLLTANNVYRKALNSDPRFKNKLVKLDSSDELLLFGNIDTIASISKILVTAIKDLLLAKQRGKMLDANEWQKIFTKNEVQQQLYSTFDISEAFEQHLLRIKSTYTSYFVSHQKQMELFTTLRMNKNHFFNKWYEYCLKESGCIKLEDILKSPMKRLTQWIDTLETLESCYEDILSPELGLKLSPTRRKYSLFSNKLETEVSEYKSNSMYNFSLTPSEIIQSYDEDQFTHLLKPPDKQNKNICNASRQESNLDNSRVPSLLSGSSSYYSDVSGLEIVTNTSTASAEMINLKMDEETEFFTLADHISKFKKVMKGLLELKKNLLKNDLSGIIDISLRRINAWKKVIECERPSGAFFAHDNLISTMCSSYIDKLHEQKNQVTILKLTELETDVMNPLERIIAHCTTVKSKLKDLQALKKDYMLFLQEKKANVRDIKRDLLGMHFQNLQNQMKREAPVFITLIHDTIECILLNYIKVFLKYLEIIAGGKKYLQKDLENMSLNDSIATGQIKNLDILQCYSKSRYMTKRMVRKDWPFPGDPSGSRVVRKLFEL | binds |
| Fus2p-GFP with P582 mutated to alanine (protein, UniProt Q05670 1-677) MFKTSYNLYDLNYPKNDSLTPIRDYKNDYFHKNDDKLPEIVRKPTRKLSKHENKLNDKKFTNKRPASLDLHSIVESLSNKKIYSPINTEIFQNVVRLNLSPQIPNSPHEGCKFYKIVQEFYLSEVEYYNNLLTANNVYRKALNSDPRFKNKLVKLDSSDELLLFGNIDTIASISKILVTAIKDLLLAKQRGKMLDANEWQKIFTKNEVQQQLYSTFDISEAFEQHLLRIKSTYTSYFVSHQKQMELFTTLRMNKNHFFNKWYEYCLKESGCIKLEDILKSPMKRLTQWIDTLETLESCYEDILSPELGLKLSPTRRKYSLFSNKLETEVSEYKSNSMYNFSLTPSEIIQSYDEDQFTHLLKPPDKQNKNICNASRQESNLDNSRVPSLLSGSSSYYSDVSGLEIVTNTSTASAEMINLKMDEETEFFTLADHISKFKKVMKGLLELKKNLLKNDLSGIIDISLRRINAWKKVIECERPSGAFFAHDNLISTMCSSYIDKLHEQKNQVTILKLTELETDVMNPLERIIAHCTTVKSKLKDLQALKKDYMLFLQEKKANVRDIKRDLLGMHFQNLQNQMKRELAVFITLIHDTIECILLNYIKVFLKYLEIIAGGKKYLQKDLENMSLNDSIATGQIKNLDILQCYSKSRYMTKRMVRKDWPFPGDPSGSRVVRKLFEL | binds |
| Fus2p^1–640 (GFP-tagged C-terminal truncation) (domain or fragment, UniProt Q05670 1-640) MFKTSYNLYDLNYPKNDSLTPIRDYKNDYFHKNDDKLPEIVRKPTRKLSKHENKLNDKKFTNKRPASLDLHSIVESLSNKKIYSPINTEIFQNVVRLNLSPQIPNSPHEGCKFYKIVQEFYLSEVEYYNNLLTANNVYRKALNSDPRFKNKLVKLDSSDELLLFGNIDTIASISKILVTAIKDLLLAKQRGKMLDANEWQKIFTKNEVQQQLYSTFDISEAFEQHLLRIKSTYTSYFVSHQKQMELFTTLRMNKNHFFNKWYEYCLKESGCIKLEDILKSPMKRLTQWIDTLETLESCYEDILSPELGLKLSPTRRKYSLFSNKLETEVSEYKSNSMYNFSLTPSEIIQSYDEDQFTHLLKPPDKQNKNICNASRQESNLDNSRVPSLLSGSSSYYSDVSGLEIVTNTSTASAEMINLKMDEETEFFTLADHISKFKKVMKGLLELKKNLLKNDLSGIIDISLRRINAWKKVIECERPSGAFFAHDNLISTMCSSYIDKLHEQKNQVTILKLTELETDVMNPLERIIAHCTTVKSKLKDLQALKKDYMLFLQEKKANVRDIKRDLLGMHFQNLQNQMKRELPVFITLIHDTIECILLNYIKVFLKYLEIIAGGKKYLQKDLENMSLNDSIATGQIKNLDI | binds |
| Fus2p^1–650 (GFP-tagged C-terminal truncation) (domain or fragment, UniProt Q05670 1-650) MFKTSYNLYDLNYPKNDSLTPIRDYKNDYFHKNDDKLPEIVRKPTRKLSKHENKLNDKKFTNKRPASLDLHSIVESLSNKKIYSPINTEIFQNVVRLNLSPQIPNSPHEGCKFYKIVQEFYLSEVEYYNNLLTANNVYRKALNSDPRFKNKLVKLDSSDELLLFGNIDTIASISKILVTAIKDLLLAKQRGKMLDANEWQKIFTKNEVQQQLYSTFDISEAFEQHLLRIKSTYTSYFVSHQKQMELFTTLRMNKNHFFNKWYEYCLKESGCIKLEDILKSPMKRLTQWIDTLETLESCYEDILSPELGLKLSPTRRKYSLFSNKLETEVSEYKSNSMYNFSLTPSEIIQSYDEDQFTHLLKPPDKQNKNICNASRQESNLDNSRVPSLLSGSSSYYSDVSGLEIVTNTSTASAEMINLKMDEETEFFTLADHISKFKKVMKGLLELKKNLLKNDLSGIIDISLRRINAWKKVIECERPSGAFFAHDNLISTMCSSYIDKLHEQKNQVTILKLTELETDVMNPLERIIAHCTTVKSKLKDLQALKKDYMLFLQEKKANVRDIKRDLLGMHFQNLQNQMKRELPVFITLIHDTIECILLNYIKVFLKYLEIIAGGKKYLQKDLENMSLNDSIATGQIKNLDILQCYSKSRYM | binds |
| Fus2p^415–626 Y496A fused to GFP (domain or fragment, UniProt Q05670 415-626) MINLKMDEETEFFTLADHISKFKKVMKGLLELKKNLLKNDLSGIIDISLRRINAWKKVIECERPSGAFFAHDNLISTMCSSAIDKLHEQKNQVTILKLTELETDVMNPLERIIAHCTTVKSKLKDLQALKKDYMLFLQEKKANVRDIKRDLLGMHFQNLQNQMKRELPVFITLIHDTIECILLNYIKVFLKYLEIIAGGKKYLQKDLENMSL | binds |
| Fus2p^415–626 F603A fused to GFP (domain or fragment, UniProt Q05670 415-626) MINLKMDEETEFFTLADHISKFKKVMKGLLELKKNLLKNDLSGIIDISLRRINAWKKVIECERPSGAFFAHDNLISTMCSSYIDKLHEQKNQVTILKLTELETDVMNPLERIIAHCTTVKSKLKDLQALKKDYMLFLQEKKANVRDIKRDLLGMHFQNLQNQMKRELPVFITLIHDTIECILLNYIKVALKYLEIIAGGKKYLQKDLENMSL | binds |

Second part, the binder after the results:

| binding | Binder |
| --- | --- |
| binds | Fus2p^415–677 (GFP-tagged N-terminal truncation) (domain or fragment, UniProt Q05670 415-677) MINLKMDEETEFFTLADHISKFKKVMKGLLELKKNLLKNDLSGIIDISLRRINAWKKVIECERPSGAFFAHDNLISTMCSSYIDKLHEQKNQVTILKLTELETDVMNPLERIIAHCTTVKSKLKDLQALKKDYMLFLQEKKANVRDIKRDLLGMHFQNLQNQMKRELPVFITLIHDTIECILLNYIKVFLKYLEIIAGGKKYLQKDLENMSLNDSIATGQIKNLDILQCYSKSRYMTKRMVRKDWPFPGDPSGSRVVRKLFEL |
| binds | Fus2p^415–626 fused to GFP (domain or fragment, UniProt Q05670 415-626) MINLKMDEETEFFTLADHISKFKKVMKGLLELKKNLLKNDLSGIIDISLRRINAWKKVIECERPSGAFFAHDNLISTMCSSYIDKLHEQKNQVTILKLTELETDVMNPLERIIAHCTTVKSKLKDLQALKKDYMLFLQEKKANVRDIKRDLLGMHFQNLQNQMKRELPVFITLIHDTIECILLNYIKVFLKYLEIIAGGKKYLQKDLENMSL |
| binds | Fus2p^415–626 Y606A fused to GFP (domain or fragment, UniProt Q05670 415-626) MINLKMDEETEFFTLADHISKFKKVMKGLLELKKNLLKNDLSGIIDISLRRINAWKKVIECERPSGAFFAHDNLISTMCSSYIDKLHEQKNQVTILKLTELETDVMNPLERIIAHCTTVKSKLKDLQALKKDYMLFLQEKKANVRDIKRDLLGMHFQNLQNQMKRELPVFITLIHDTIECILLNYIKVFLKALEIIAGGKKYLQKDLENMSL |
| binds | Fus2p^415–626 Y616A fused to GFP (domain or fragment, UniProt Q05670 415-626) MINLKMDEETEFFTLADHISKFKKVMKGLLELKKNLLKNDLSGIIDISLRRINAWKKVIECERPSGAFFAHDNLISTMCSSYIDKLHEQKNQVTILKLTELETDVMNPLERIIAHCTTVKSKLKDLQALKKDYMLFLQEKKANVRDIKRDLLGMHFQNLQNQMKRELPVFITLIHDTIECILLNYIKVFLKYLEIIAGGKKALQKDLENMSL |
